About 2,200 (0.71%) of roughly 310,000 compounds showed an effect of 50% or more. Effects have a minus sign here. The list shows a part of the results.
Each compound was assayed against human ether-à-go-go-related gene (hERG) potassium channel (human, UniProt Q12809) (assay: primary screen, population patch clamp on CHO cells stably expressing hERG).
human ether-à-go-go-related gene (hERG) potassium channel, sequence (Q12809 whole entry, looked up): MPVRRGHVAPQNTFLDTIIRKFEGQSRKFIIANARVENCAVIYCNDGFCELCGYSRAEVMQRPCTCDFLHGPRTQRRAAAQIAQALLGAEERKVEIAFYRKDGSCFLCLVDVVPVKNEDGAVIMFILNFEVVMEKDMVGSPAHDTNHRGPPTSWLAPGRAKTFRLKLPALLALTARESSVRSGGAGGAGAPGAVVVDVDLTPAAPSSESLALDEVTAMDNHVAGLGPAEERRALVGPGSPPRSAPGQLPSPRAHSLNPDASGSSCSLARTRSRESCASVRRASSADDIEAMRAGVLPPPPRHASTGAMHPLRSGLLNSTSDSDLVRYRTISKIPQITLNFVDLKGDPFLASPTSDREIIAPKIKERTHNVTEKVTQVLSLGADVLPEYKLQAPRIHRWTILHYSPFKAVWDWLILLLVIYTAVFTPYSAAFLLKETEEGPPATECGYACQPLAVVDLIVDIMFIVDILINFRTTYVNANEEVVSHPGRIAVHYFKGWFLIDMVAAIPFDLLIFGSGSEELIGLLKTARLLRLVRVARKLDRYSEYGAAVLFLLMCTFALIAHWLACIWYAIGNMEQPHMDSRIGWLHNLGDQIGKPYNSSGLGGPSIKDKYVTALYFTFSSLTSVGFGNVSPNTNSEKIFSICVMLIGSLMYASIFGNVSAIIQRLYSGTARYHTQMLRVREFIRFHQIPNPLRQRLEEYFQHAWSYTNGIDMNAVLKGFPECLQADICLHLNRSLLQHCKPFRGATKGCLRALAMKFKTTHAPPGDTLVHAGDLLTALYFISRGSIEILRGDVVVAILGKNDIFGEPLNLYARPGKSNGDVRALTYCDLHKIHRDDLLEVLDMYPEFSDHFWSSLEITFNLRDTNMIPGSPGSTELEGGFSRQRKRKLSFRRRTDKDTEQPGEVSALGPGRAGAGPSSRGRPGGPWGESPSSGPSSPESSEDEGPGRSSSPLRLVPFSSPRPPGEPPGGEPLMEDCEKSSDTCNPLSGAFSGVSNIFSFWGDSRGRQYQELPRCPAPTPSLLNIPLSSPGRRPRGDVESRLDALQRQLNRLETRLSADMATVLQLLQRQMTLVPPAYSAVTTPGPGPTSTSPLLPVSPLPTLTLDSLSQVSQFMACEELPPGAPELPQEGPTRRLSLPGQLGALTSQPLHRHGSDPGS

Row | Structure (SMILES) | hERG current change (%, negative = inhibition) at 1uM [%]
1 | COc1ccc([N+](=O)[O-])cc1NC(=O)c1cn(-c2ccc(C)c(C)c2)c(=O)c2ccccc12 | 9.63
2 | CCCCC(=O)NC(N1CCCCC1)C(Cl)(Cl)Cl (centres unmarked) | 13.2
3 | Cc1cccc(NC(=O)CCNS(=O)(=O)c2ccc3[nH]c(=O)oc3c2)c1 | -3.97
4 | Oc1ccccc1C1CC(c2cccs2)=NC(c2ccc(Cl)cc2)N1 (centres unmarked) | 17.6
5 | COc1cccc(C2CC(c3cccs3)=NN2S(C)(=O)=O)c1 (centres unmarked) | 7.15
6 | O=C(NC1CCCC1)C(NS(=O)(=O)c1cccc2nsnc12)c1ccccc1 (centres unmarked) | 6.24
7 | Cc1cccc(-c2nnc(SCC#N)n2C)c1 | 9.24
8 | CC12CCC(C(=O)NC(c3ccccc3)c3ccccc3)(OC1=O)C2(C)C (centres unmarked) | 5.02
9 | CCOCCCNC(=O)c1cc2c(-c3ccc(Cl)cc3)nn(C)c2s1 | 11.7
10 | CCCC(=O)c1cn(CC(=O)OC)c2ccccc12 | 14.5
11 | O=C(CCc1ccccc1)NCCC1=CCCCC1 | -0.978
12 | CCOC(=O)c1c(C)oc2c(CC(=O)c3ccccc3)c(Cl)c(O)c(O)c12 | -0.111
13 | Cc1nn(Cc2ccc(Cl)cc2Cl)c(Cl)c1C(=O)NC1CCCc2ccccc21 (centres unmarked) | 4.9
14 | COc1ccc(S(=O)(=O)N2CCOC2CNC(=O)C(=O)NCc2ccncc2)cc1 (centres unmarked) | 14
15 | CCCCOc1ccc(-n2nc(C)cc2C)nn1 | -5.38
16 | O=C(CC(C(=O)O)c1ccccc1)Nc1cccc2ccccc12 (centres unmarked) | 14.1
17 | CCOC(=O)C1CCN(C(=O)c2cccs2)CC1 | 13
18 | Cc1cc(C)nc(NC(N)=S)n1 | 16.2
19 | CC(C)COc1cccc(C(=O)Nc2ccc(N3CCOCC3)cc2N2CCOCC2)c1 | 2.09
20 | Cc1cc(NC(=O)c2c(F)cccc2F)n(-c2nc3ccccc3[nH]2)n1 | 13.4
21 | CCc1ccccc1NC(=O)Nc1cccs1 | 12.6
22 | Cc1nn(C)c(C)c1-c1c(C#N)c(N)nc2c1CCCCCC2 | 1.53
23 | CC1=C(C(=O)N2CCCC(C(=O)c3cccc4ccccc34)C2)OCCO1 (centres unmarked) | 24.9
24 | Clc1cccc(Cl)c1CSc1cc2c(nn1)-c1ccccc1CC2 | 15.6
25 | CN(C)CCN(CC1CCCN(Cc2ccccc2F)C1)C(=O)Cc1ccc(F)c(F)c1 (centres unmarked) | 4.74
26 | COc1ccc(N(CC(=O)N2CCc3ccccc3C2)S(C)(=O)=O)cc1OC | -4.06

Reference: article PMC4336329 (PLoS ONE, 2015)
